{"source": "paper PMC9911399", "about": "“Two distinct binding modes provide the RNA-binding protein RbFox with extraordinary sequence specificity”", "binders": {"B1": {"name": "UUUGUUC (DNA:RNA)", "RNA": "GGGAGACCGGAAUUCAGAUUGUCCUUUGUUCUUAAAUCCCGUCGUAGCCACCA", "DNA 1": "CAATCTGAATTCCGGTCTCCC", "DNA 2": "TGGTGGCTACGACGGGATT"}, "B2": {"name": "ACUGUCC (DNA:RNA)", "RNA": "B1 RNA with U25A, U26C, U30C", "DNA 1": "CAATCTGAATTCCGGTCTCCC", "DNA 2": "TGGTGGCTACGACGGGATT"}, "B3": {"name": "UAUAUCG (DNA:RNA)", "RNA": "B1 RNA with U26A, G28A, U30C, C31G", "DNA 1": "CAATCTGAATTCCGGTCTCCC", "DNA 2": "TGGTGGCTACGACGGGATT"}, "B4": {"name": "UUGUAGG (DNA:RNA)", "RNA": "B1 RNA with U27G, G28U, U29A, U30G, C31G", "DNA 1": "CAATCTGAATTCCGGTCTCCC", "DNA 2": "TGGTGGCTACGACGGGATT"}, "B5": {"name": "UAAGUUA (DNA:RNA)", "RNA": "B1 RNA with U26A, U27A, C31A", "DNA 1": "CAATCTGAATTCCGGTCTCCC", "DNA 2": "TGGTGGCTACGACGGGATT"}, "B6": {"name": "UAAGGGC (DNA:RNA)", "RNA": "B1 RNA with U26A, U27A, U29G, U30G", "DNA 1": "CAATCTGAATTCCGGTCTCCC", "DNA 2": "TGGTGGCTACGACGGGATT"}, "B7": {"name": "CAACCCG (DNA:RNA)", "RNA": "GGGAGACCGGAAUUCAGAUUGUCCCAACCCGUUAAAUCCCGUCGUAGCCACCA", "DNA 1": "CAATCTGAATTCCGGTCTCCC", "DNA 2": "TGGTGGCTACGACGGGATT"}, "B8": {"name": "CUGGUAA (DNA:RNA)", "RNA": "B1 RNA with U25C, U27G, U30A, C31A", "DNA 1": "CAATCTGAATTCCGGTCTCCC", "DNA 2": "TGGTGGCTACGACGGGATT"}, "B9": {"name": "UCUUAGC (DNA:RNA)", "RNA": "B1 RNA with U26C, G28U, U29A, U30G", "DNA 1": "CAATCTGAATTCCGGTCTCCC", "DNA 2": "TGGTGGCTACGACGGGATT"}, "B10": {"name": "AGCGAUC (DNA:RNA)", "RNA": "B1 RNA with U25A, U26G, U27C, U29A", "DNA 1": "CAATCTGAATTCCGGTCTCCC", "DNA 2": "TGGTGGCTACGACGGGATT"}, "B11": {"name": "ACGGUAC (DNA:RNA)", "RNA": "B1 RNA with U25A, U26C, U27G, U30A", "DNA 1": "CAATCTGAATTCCGGTCTCCC", "DNA 2": "TGGTGGCTACGACGGGATT"}, "B12": {"name": "UAAAUGG (DNA:RNA)", "RNA": "B7 RNA with C25U, C28A, C29U, C30G", "DNA 1": "CAATCTGAATTCCGGTCTCCC", "DNA 2": "TGGTGGCTACGACGGGATT"}, "B13": {"name": "GCCUGAG (DNA:RNA)", "RNA": "B7 RNA with C25G, A26C, A27C, C28U, C29G, C30A", "DNA 1": "CAATCTGAATTCCGGTCTCCC", "DNA 2": "TGGTGGCTACGACGGGATT"}, "B14": {"name": "CUAGACC (DNA:RNA)", "RNA": "B7 RNA with A26U, C28G, C29A, G31C", "DNA 1": "CAATCTGAATTCCGGTCTCCC", "DNA 2": "TGGTGGCTACGACGGGATT"}, "B15": {"name": "GUUGGAA (DNA:RNA)", "RNA": "B1 RNA with U25G, U29G, U30A, C31A", "DNA 1": "CAATCTGAATTCCGGTCTCCC", "DNA 2": "TGGTGGCTACGACGGGATT"}, "B16": {"name": "UAUAGGC (DNA:RNA)", "RNA": "B1 RNA with U26A, G28A, U29G, U30G", "DNA 1": "CAATCTGAATTCCGGTCTCCC", "DNA 2": "TGGTGGCTACGACGGGATT"}, "B17": {"name": "CCGGCCA (DNA:RNA)", "RNA": "B7 RNA with A26C, A27G, C28G, G31A", "DNA 1": "CAATCTGAATTCCGGTCTCCC", "DNA 2": "TGGTGGCTACGACGGGATT"}, "B18": {"name": "AAGGAGU (DNA:RNA)", "RNA": "B7 RNA with C25A, A27G, C28G, C29A, C30G, G31U", "DNA 1": "CAATCTGAATTCCGGTCTCCC", "DNA 2": "TGGTGGCTACGACGGGATT"}, "B19": {"name": "AUUAUCC (DNA:RNA)", "RNA": "B1 RNA with U25A, G28A, U30C", "DNA 1": "CAATCTGAATTCCGGTCTCCC", "DNA 2": "TGGTGGCTACGACGGGATT"}, "B20": {"name": "CCCCUCU (DNA:RNA)", "RNA": "B7 RNA with A26C, A27C, C29U, G31U", "DNA 1": "CAATCTGAATTCCGGTCTCCC", "DNA 2": "TGGTGGCTACGACGGGATT"}}, "note": "Positions count from the first letter of the chain named. This is one part of the list."}
{"target": "T1, RBFOX1 RRM RbFoxmut (Fox-RRM*) (Homo sapiens, UniProt Q9NWB1 109-208, R118D;E147R;N151S;E152T)", "T1 sequence": "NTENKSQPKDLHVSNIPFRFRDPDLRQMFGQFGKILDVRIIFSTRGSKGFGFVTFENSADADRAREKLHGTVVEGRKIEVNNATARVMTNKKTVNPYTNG", "assay": "EMSA; HiTS-Eq, 1 nM pool, 10 min; buffer printed only for the single-RNA assays: 10 mM Tris pH 7.5, 150 mM NaCl, 3.4 mM EDTA, 0.001% NP-40, 30 C", "conditions": "tags: His6 N-terminal (pET28a); label: 5' 32P", "outline": "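These values rest on relative association constants, computed from read-count changes of each RNA species versus the control reaction and normalised to the cognate motif. Reads came from free RNA recovered by 8% native PAGE after purified RbFox RRM (wild type or mutant) at increasing concentrations was equilibrated for 10 min in 50 µL with 1 nM of a 5′-radiolabelled pool with 7 randomized nucleotides and DNA-annealed flanks.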"}
{"binder": "B1", "binding signal": "0.0935 KA relative to UGCAUGU"}
{"binder": "B2", "binding signal": "0.0738 KA relative to UGCAUGU"}
{"binder": "B3", "binding signal": "0.0776 KA relative to UGCAUGU"}
{"binder": "B4", "binding signal": "0.108 KA relative to UGCAUGU"}
{"binder": "B5", "binding signal": "0.115 KA relative to UGCAUGU"}
{"binder": "B6", "binding signal": "0.0666 KA relative to UGCAUGU"}
{"binder": "B7", "binding signal": "0.0827 KA relative to UGCAUGU"}
{"binder": "B8", "binding signal": "0.121 KA relative to UGCAUGU"}
{"binder": "B9", "binding signal": "0.117 KA relative to UGCAUGU"}
{"binder": "B10", "binding signal": "0.0635 KA relative to UGCAUGU"}
{"binder": "B11", "binding signal": "0.121 KA relative to UGCAUGU"}
{"binder": "B12", "binding signal": "0.0657 KA relative to UGCAUGU"}
{"binder": "B13", "binding signal": "0.174 KA relative to UGCAUGU"}
{"binder": "B14", "binding signal": "0.044 KA relative to UGCAUGU"}
{"binder": "B15", "binding signal": "0.125 KA relative to UGCAUGU"}
{"binder": "B16", "binding signal": "0.121 KA relative to UGCAUGU"}
{"binder": "B17", "binding signal": "0.0587 KA relative to UGCAUGU"}
{"binder": "B18", "binding signal": "0.103 KA relative to UGCAUGU"}
{"binder": "B19", "binding signal": "0.0569 KA relative to UGCAUGU"}
{"binder": "B20", "binding signal": "0.0516 KA relative to UGCAUGU"}
